In all, about 390,000 compounds went through this assay and about 150 (0.038%) were called active. This list was built around the results that the source calls inconclusive (neither active nor inactive); the mix of calls is not that of the screen. Calls follow the shape of the dose curve; as a rule, active = well fitted inhibition curve with a large enough effect; inconclusive = small, poorly fitted or top-dose-only effect; inactive = no such curve, though single readings can be large or run the other way. Potencies beside an inconclusive call are fits to weak or partial responses and may not hold up.
target: Regulator of G-protein signaling 4 (Homo sapiens) (UniProt P49798); assay: Inhibitors of Regulator of G Protein Signaling (RGS) 4: qHTS; details: Transcreener GDP fluorescence polarization, RGS4-accelerated GTP hydrolysis; series mostly up to 114 µM; activity change, negative = inhibition: at the top concentration; also: nearly all actives have a fitted effect of over 75% in size
Sequence of UniProt P49798 (P49798 whole entry, looked up): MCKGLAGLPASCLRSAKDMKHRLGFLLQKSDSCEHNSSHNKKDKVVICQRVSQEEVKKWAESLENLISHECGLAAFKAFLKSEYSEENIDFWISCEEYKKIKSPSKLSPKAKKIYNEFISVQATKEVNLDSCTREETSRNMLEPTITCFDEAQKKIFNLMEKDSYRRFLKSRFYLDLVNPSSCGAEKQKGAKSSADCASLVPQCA
In short: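 MLSMR compounds (23 nl, pin-transferred) preincubated 10 min at room temperature with a 500nM (2x) first reagent, then RGS4 at 900nM (2x) plus Transcreener GDP mix added; fluorescence polarization (620/688 nm) read before and after 90 min at 30 °C.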
% is scaled to controls: 0 for no effect and ±100 for the full control effect; potency is read from the fitted curve at half-maximal effect; tags tell the direction and shape of the fitted curve.

SMILES | Potency | activity change, negative = inhibition
CCOC(=O)CN1N=C(c2ccc(Cl)s2)CSC1=O | inconclusive: 89.1 µM [inhibitor, single point] | 
CCN(c1ccccc1)S(=O)(=O)c1ccc(C(=O)NC2CCN(Cc3ccccc3)CC2)cc1 |  | inactive: -15.4%
COc1cccc(-c2nnc(-c3ccco3)o2)c1 | inconclusive: 79.4 µM [inhibitor, partial curve, poor fit] | 
Oc1ccc2ccccc2c1C=NNc1ccccn1 | inconclusive: 79.4 µM [inhibitor, partial curve, poor fit] | 
Cc1cc(C)n(-c2nnc(Cl)c3ccccc23)n1 |  | inactive: -7.88%
N#Cc1ccc(C(=O)Nc2nnc(-c3cccs3)o2)cc1 | inconclusive: 70.8 µM [inhibitor, single point] | 
CCN(CC(=O)Nc1ccc2c(c1)OCCO2)C(=O)C1CC(=O)N(c2ccc(OC)cc2OC)C1 (centres undefined) |  | inactive: 8.51%
Cc1ccccc1N/N=C/c1ccc(N2CCOCC2)cc1 | inconclusive: 56.2 µM [inhibitor, partial curve, poor fit] | 
Cc1c(Nc2cc(Cl)c3nonc3c2[N+](=O)[O-])c(=O)n(-c2ccccc2)n1C | inconclusive: 56.2 µM [inhibitor, partial curve, poor fit] | 
Nc1ccccc1Sc1nc2ccccc2[nH]1 | inconclusive: 31.6 µM [inhibitor, partial curve, poor fit] | 
NNC(=O)c1ccc([N+](=O)[O-])c(CS(=O)(=O)c2ccc(Cl)cc2)c1 | inconclusive: 79.4 µM [inhibitor, partial curve, poor fit] | 
Cc1cc(C)c(C)c(S(=O)(=O)N2CCN(CC(=O)Nc3sccc3C#N)CC2)c1C | inconclusive: 89.1 µM [inhibitor, single point] | 
O=C1c2cccc3c([N+](=O)[O-])ccc(c23)C(=O)N1c1ccc(Cl)cn1 |  | inactive: 9.63%
CNC(=O)N(O)C1N(NC(=O)Nc2cccc3ccccc23)C(=S)SC1(C)C (centres undefined) | inconclusive: 79.4 µM [inhibitor, partial curve, poor fit] | 
CC(=O)Nc1cccc(Oc2nc(C)cc(C)c2C#N)c1 | inconclusive: 50.1 µM [inhibitor, partial curve, poor fit] | 
Cc1ccc(S(=O)(=O)N2CCN(c3nc(-c4cscn4)nc4ccccc34)CC2)cc1 |  | inactive: 8.81%
CCOc1ccc(CCNC(=O)Cn2ncn3c(cc4ccccc43)c2=O)cc1OCC |  | inactive: 11%
COC(=O)[C@]1(Cc2ccccc2)N[C@H](CN(C)S(=O)(=O)c2ccc(C(C)(C)C)cc2)[C@@H]2C(=O)N(C)C(=O)[C@@H]21 |  | inactive: -14%
Clc1cccc(-c2nc(NCc3cccnc3)c3ccccc3n2)c1 |  | inactive: -36%
CCOC(=O)C(NS(=O)(=O)c1ccccc1)(C(F)(F)F)P(=O)(OCC(C)C)OCC(C)C (centres undefined) | inconclusive: 79.4 µM [inhibitor, single point] | 
CCOC(=O)c1c(NC(=O)COc2cccc(C(F)(F)F)c2)sc2c1CCCCC2 | inconclusive: 89.1 µM [inhibitor, partial curve, poor fit] | 
CCN(CC)CCOC(=O)c1ccc(N/C=C(/C#N)c2nc(-c3ccc4c(c3)OCO4)cs2)cc1 | inconclusive: 79.4 µM [inhibitor, partial curve, poor fit] | 

SMILES | Potency | activity change, negative = inhibition
Cc1ccc(NC(=O)c2nnn(-c3ccc4c(c3)OCCO4)c2N)cc1 |  | inactive: -15.5%
Cc1ccc(S(=O)(=O)NCC(=O)N(CC(=O)NC2CCCC2)c2ccc3c(c2)OCCO3)cc1 | inconclusive: 89.1 µM [inhibitor, single point] | 
Cc1ccc(-n2nc3c(c2NC(=O)c2ccc(F)c(F)c2)CS(=O)(=O)C3)cc1 |  | inactive: -16.1%
S=c1[nH]nc(-c2ccc(Cl)cc2Cl)n1Cc1ccccc1 | inconclusive: 35.5 µM [inhibitor, partial curve, poor fit] | 
Cc1cc(Cl)ccc1OCC(=O)N(Cc1ccco1)c1c(N)n(Cc2ccccc2)c(=O)[nH]c1=O |  | inactive: -24.9%
Cc1ccc(Oc2ccc(NC(=O)Cn3ccsc3=N)cc2)cc1 |  | inactive: -10.2%
O=C(NNC(=S)NC1CCCCC1)c1cccc(S(=O)(=O)Nc2ccccc2Cl)c1 | inconclusive: 50.1 µM [inhibitor, partial curve, poor fit] | 
O=C(c1ccccc1)[C@@H]1[C@@H]2C(=O)N(c3ccc(F)cc3)C(=O)[C@@H]2C2CCCN21 (some centres undefined) | inconclusive: 20 µM [inhibitor, full curve, poor fit] | 
COc1ccc(/C(C)=N/OC/C(O)=C(\C#N)c2nc3ccccc3[nH]2)cc1OC |  | inactive: -47.1%
COc1cccc(C(=O)NCCSCc2c(F)cccc2Cl)c1 | inconclusive: 79.4 µM [inhibitor, single point] | 
CC(C)(C)Cc1nnc(NS(=O)(=O)c2ccc(F)cc2)s1 | inconclusive: 79.4 µM [inhibitor, single point] | 
CNC(=S)N1CCC(NC(=O)C23CC4CC(CC(C4)C2)C3)CC1 | inconclusive: 44.7 µM [inhibitor, partial curve, poor fit] | 
O=C(/C=C/c1ccccc1)OCCCCN=C1NS(=O)(=O)c2ccccc21 | inconclusive: 44.7 µM [inhibitor, partial curve, poor fit] | 
COc1ccc(S(=O)(=O)CCC(=O)Nc2c(C)n(C)n(-c3ccccc3)c2=O)cc1 | inconclusive: 89.1 µM [inhibitor, single point] | 
CCc1c(C(=O)NCCc2ccc(N3CCCCC3)cc2)[nH]c2ccc(Cl)cc12 | inconclusive: 26.7 µM [inhibitor, partial curve, poor fit] | 
CC1=CC(C)(C)N(C(=O)CCl)c2cc(C)ccc21 |  | inactive: -11%
CC(=O)N(c1ccc2oc(=O)sc2c1)S(=O)(=O)c1ccc(C(=O)O)cc1 | inconclusive: 17.8 µM [inhibitor, full curve, poor fit] | 
COc1ccc(/C=C(\C#N)C(=O)Nc2cc(S(=O)(=O)N3CCOCC3)ccc2N2CCCC2)cc1 | inconclusive: 50.1 µM [inhibitor, partial curve, poor fit] | 
Nc1cccc2c(O)cc(S(=O)(=O)O)cc12 | inconclusive: 31.6 µM [inhibitor, full curve, poor fit] | 
CC(C)OP(=O)(OC(C)C)C(Nc1ccccc1)c1cccnc1 (centres undefined) | inconclusive: 100 µM [inhibitor, partial curve, poor fit] | 
COC(=O)COc1cccc(NC(=O)c2ccc(Cl)cc2)c1 | inconclusive: 44.7 µM [inhibitor, partial curve, poor fit] | 
Cn1ccc2cc(S(=O)(=O)N3CCCN(C(=O)Nc4ccccc4Br)CC3)ccc21 |  | inactive: -6.05%

SMILES | Potency | activity change, negative = inhibition
O=C(Nc1ccc2nc3ccccc3nc2c1)c1ccc(Br)cc1 | inconclusive: 79.4 µM [inhibitor, partial curve, poor fit] | 
CCOc1ccccc1NC(=O)c1c(NC(=O)c2ccccc2C)sc2c1CCC(C)C2 (centres undefined) | inconclusive: 50.1 µM [inhibitor, partial curve, poor fit] | 
O=C(Nc1cccc(-c2cc3ccccc3oc2=O)c1)c1ccc(Br)o1 | inconclusive: 70.8 µM [inhibitor, single point] | 
O=C1/C(=C\c2ccco2)CCC/C1=C\c1ccco1 | inconclusive: 28.2 µM [inhibitor, full curve, poor fit] | 
Cc1cc(C)cc(NC(=S)NC2CC3CCC(C2)N3Cc2ccco2)c1 (centres undefined) |  | inactive: 3%
COc1ccccc1/C=C/C=N\N1CCN(Cc2ccccc2Cl)CC1 | inconclusive: 79.4 µM [inhibitor, partial curve, poor fit] | 
CC1CCN(Cc2c(O)ccc3c2O/C(=C\c2ccco2)C3=O)CC1 | inconclusive: 79.4 µM [inhibitor, partial curve, poor fit] | 
CCCCCC(=O)N(O)C1CC(=O)N(c2ccccc2)C1=O (centres undefined) | inconclusive: 50.1 µM [inhibitor, partial curve, poor fit] | 
CC1=C(C)CC2C(=O)N(c3cccc4ccccc34)C(=O)C2C1 (centres undefined) | inconclusive: 79.4 µM [inhibitor, partial curve, poor fit] | 
CN(C)c1ccc(NC(=O)COC(=O)Cn2nnc3ccccc32)cc1 | inconclusive: 89.1 µM [inhibitor, single point] | 
O=C1c2ccccc2-c2n[nH]c3cccc1c23 | inconclusive: 37.7 µM [inhibitor, single point] | 
CC(C)C1C(c2ccccc2)N(C)C(c2ccccc2)CC1(O)c1ccccc1 (centres undefined) |  | inactive: -22.8%
O=C(N/N=C/c1ccc(Cl)cc1)c1nc2ccc([N+](=O)[O-])cc2c(=O)[nH]1 | inconclusive: 28.2 µM [inhibitor, full curve, poor fit] | 
COc1ccccc1N1CCN(C2CCN(S(=O)(=O)c3ccc(C)cc3)CC2)CC1 |  | inactive: 15.7%
CCCCNC(=O)Nc1ccnn1C1CCCCC1 |  | inactive: -4.57%
CCOC(=O)c1sc2nc(-c3ccco3)c3c(c2c1N)CC(C)(C)OC3 | inconclusive: 31.6 µM [inhibitor, full curve, poor fit] | 
COc1ccccc1-c1ccc(/C=C2\C=CC(=O)O2)o1 | inconclusive: 79.4 µM [inhibitor, partial curve, poor fit] | 
NC(CSC1(c2cccc3ccccc23)c2ccccc2-c2ccccc21)C(=O)O (centres undefined) | inconclusive: 56.2 µM [inhibitor, partial curve, poor fit] | 
CCN(CC)CCOC(=O)c1ccc(NC(=O)c2cn(-c3ccccc3)nc2-c2cccs2)cc1 | inconclusive: 31.6 µM [inhibitor, full curve, poor fit] | 
NC(=O)CSc1ncc2c(n1)-c1ccccc1N(Cc1cccc(F)c1)S2(=O)=O |  | inactive: -3.74%
